In all, about 4,100 compounds went through this assay and about 1,600 (39%) were called active. The inconclusive results got no clear call from the source; some entries with a clear call stand among them for comparison. Calls come from the whole dose curve; as a rule, active = well fitted inhibition curve with a large enough effect; inconclusive = small, poorly fitted or top-dose-only effect; inactive = no such curve, though single readings can be large or run the other way. Potencies of inconclusive entries are doubtful fits and often do not repeat.
Test: qHTS Validation assay for Inhibitors of Plasmodium falciparum Dd2 growth in vitro; note: nearly all actives have a fitted effect of over 70% in size
Conditions: P. falciparum Dd2 in RBCs, SYBR Green growth, 72 h; activity change, negative = inhibition: at 28.7 µM (top of the series) unless noted
Summary of the method: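 P. falciparum Dd2-infected red blood cells (2.5% hematocrit, 0.3% parasitemia) grown 72 h at 37 °C under 5% O2 with compounds in a titration, 29 uM to 0.5 nM final. Growth read as SYBR Green-1 fluorescence after ~16 h lysis; artesunate 300 nM as positive control.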
% is set by controls: 0 for no effect and ±100 for the full control effect; potency is the fitted concentration of half-maximal effect; tags give direction and shape of the fitted curve.

| Structure (SMILES) | Potency | activity change, negative = inhibition |
| --- | --- | --- |
| Cc1ccc(OCCSc2nc3ccc(NC(=O)c4cccs4)cc3s2)cc1 | inconclusive: 2.99 µM [inhibitor, full curve] | – |
| CNC(=O)Oc1ccc2c(c1)[C@]1(C)CCN(C)[C@@H]1N2C | inconclusive: 15 µM [inhibitor, single point] | – |
| Cc1ccc(NC(=O)c2cc(C(=O)c3cc(Cl)ccc3O)cn(-c3ccc(C)cc3)c2=O)cc1 | active: 0.422 µM | – |
| CN(C)C1CCN(Cc2cc(COCc3ccccc3)c3cccnc3c2O)C1 (stereo not given) | inconclusive: 15 µM [inhibitor, single point] | – |
| CN(Cc1ccccc1)C(=O)[C@H]1O[C@H](CCN2CCN(c3ccc(F)cc3)CC2)CC[C@@H]1O | inconclusive: 5.96 µM [inhibitor, partial curve] | – |
| COCCN1C(=O)c2ccccc2C(C(=O)Nc2ccccc2O)C12CCCCC2 (stereo not given) | inconclusive: 16.8 µM [inhibitor, single point] | – |
| O=C1c2cc(F)ccc2-n2c1nc1ccccc1c2=O | inconclusive: 0.119 µM [inhibitor, full curve] | – |
| CCC(=O)Nc1ccc2nnc(-c3ccc(C(=O)Nc4ccc(OC)cc4)cc3)n2c1 | inconclusive: 8.41 µM [inhibitor, partial curve, poor fit] | – |
| c1ccc(-c2nc(C3CCOCC3)no2)c(OC2CCN(C3CCCC3)C2)c1 (stereo not given) | inconclusive: 15 µM [inhibitor, single point] | – |
| CCOC(=O)C1=C(c2ccccc2)NC(N)=NC1c1ccc(OCc2ccc(Cl)cc2)c(OC)c1 (stereo not given) | inconclusive: 16.8 µM [inhibitor, single point] | – |
| CCc1cccc(-n2c(=O)c3cccnc3n2CC(=O)Nc2ccc(F)c(C)c2)c1 | active: 2.66 µM | – |
| O=C(Nc1ccc(C(F)(F)F)cc1)c1cc(-c2cccnc2)nc2ccc(Br)cc12 | inconclusive: 21.1 µM [inhibitor, single point] | – |
| CN(CC1(C)CCOCC1)C(=O)c1ccco1 | – | inactive: 4.08% |
| COC(=O)c1nn(-c2ccc3c(c2)CCN3C(C)=O)cc1O | – | inactive: 45.4% |
| O=C(CC1CCCCC1)NC(Cc1ccccc1)C(=O)N1CCN(c2ccccn2)CC1 (stereo not given) | inconclusive: 23.7 µM [inhibitor, single point] | – |
| CCOC(=O)c1ccc2c(c1)N(CC(=O)N(C)c1ccccc1)C(=O)c1ccccc1S2 | active: 10.6 µM | – |
| CC(=O)N1CCc2c(sc(NC(=O)CSc3ccccc3)c2-c2nc3ccccc3s2)C1 | inconclusive: 21.1 µM [inhibitor, single point] | – |
| CN1C(=O)[C@H]2CN(Cc3ccc(C#N)cc3)C[C@H]2C1=O | – | inactive: 14.4% |
| COc1ccccc1-n1c(SCC(=O)NC(C)(C)C)nc(O)cc1=O | – | inactive: 12.2% |
| CCCCOc1ccc(-c2nc(C3CC(=O)N(C4CCCCC4)C3)no2)cc1 (stereo not given) | inconclusive: 21.1 µM [inhibitor, single point] | – |
| O=C(N/N=C/c1cc(Cl)ccc1O)c1ccncc1 | inconclusive: 13.3 µM [inhibitor, partial curve, poor fit] | – |
| Cc1ccccc1NC(=O)Nc1nnc(N2CCCCCC2)s1 | inconclusive: 21.1 µM [inhibitor, single point] | – |

| Structure (SMILES) | Potency | activity change, negative = inhibition |
| --- | --- | --- |
| O=C(c1ccccc1)N1CCC(Cc2nc(-c3ccncc3)n[nH]2)CC1 | inconclusive: 15 µM [inhibitor, partial curve] | – |
| CC(=O)Nc1ccc(CN2CC3CCC(C2)N3c2ccc(C(F)(F)F)cc2)cc1 | inconclusive: 9.44 µM [inhibitor, partial curve, poor fit] | – |
| COc1ccc(C(=O)N[C@@H]2CCC[C@@H]2C(=O)NC(C)C)cc1 | – | inactive: -18.7% |
| COCC1CN(C)CC12CCN(S(=O)(=O)c1cc(F)cc(F)c1)CC2 (stereo not given) | inconclusive: 21.1 µM [inhibitor, single point] | – |
| O=C(NC1CCN(c2cc(-c3cccs3)[nH]n2)CC1)c1cccc(OC(F)(F)F)c1 | inconclusive: 21.1 µM [inhibitor, single point] | – |
| Cc1ccccc1N(C)C1CN(Cc2ccc(C#N)cc2)C1 | inconclusive: 3.85 µM [inhibitor, full curve] | – |
| COC(=O)[C@@H]1Cc2ncn(Cc3ccc(OC)cc3)c2CN1S(=O)(=O)c1ccc(F)cc1 | inconclusive: 15 µM [inhibitor, single point] | – |
| C=CCn1cc2c3c(cccc31)[C@H](CC(C)C)N[C@H](C(=O)NCc1ccc(F)cc1)C2 | inconclusive: 24.3 µM [inhibitor, single point] | – |
| CCN1CCN(C(=O)c2c(C)nn(-c3ccc(F)cc3)c2-n2cccc2)CC1 | inconclusive: 9.44 µM [inhibitor, partial curve] | – |
| CCCN1C(CC(C)C)=NS(=O)(=O)c2cc(NC(=O)c3ccco3)ccc21 | active: 7.5 µM | – |
| COc1cc(F)ccc1CNCc1cccnc1N1CCOCC1 | inconclusive: 10.6 µM [inhibitor, partial curve] | – |
| CCOC(=O)Cn1c2c(c(=N)c3c1CCC3)CCCC2 | – | inactive: -23.5% |
| Cc1cc(C)n(CCC(=O)N2CC(Oc3ccc(-c4nc(-c5ccccc5)no4)cc3)C2)n1 | inconclusive: 16.8 µM [inhibitor, single point] | – |
| CNC(=O)c1cc(-c2ccc(C)cc2)cc2c1OCCN2Cc1cccnc1 | inconclusive: 21.7 µM [inhibitor, partial curve, poor fit] | – |
| CC(C)Nc1nccc(C2(c3ccccc3Cl)CCNCC2)n1 | inconclusive: 9.44 µM [inhibitor, partial curve] | – |
| Cc1cccc(C(=O)Nc2ccc3nc(SCC(=O)N4CCc5ccccc54)sc3c2)c1 | inconclusive: 21.1 µM [inhibitor, single point] | – |
| CCC(C)NC(=O)C1COC2(CCN(C(=O)c3cccc(Cl)c3)CC2)N1C(=O)c1ccccc1C (stereo not given) | – | inactive: -20% |
| COc1ccc(-c2cc(C(=O)NCc3c(C)cc(C)[nH]c3=O)c3c(c2)N(C(C)C)CCO3)cc1 | inconclusive: 21.1 µM [inhibitor, single point] | – |
| COc1ccc(-c2nc3ccccc3o2)cc1NC(=O)COc1c(C)cc(Cl)cc1Cl | – | inactive: 13.1% |
| Cc1cc(Cl)ccc1-c1ccc(CNC2CN(C(=O)OC(C)(C)C)C2)cc1 | – | inactive: 37% |
| Cc1ccccc1C1C(C#N)=C2N=C(N)c3c(sc4c3CCCCC4)N2C2=C1C(=O)CCC2 (stereo not given) | active: 2.66 µM | – |
| O=C(Nc1cnc(-c2cccc(Cl)c2)nc1)c1ccccc1F | inconclusive: 13.3 µM [inhibitor, single point] | – |

| Structure (SMILES) | Potency | activity change, negative = inhibition |
| --- | --- | --- |
| COc1ccc(C(=O)N[C@@H]2CCC[C@@H]2C(=O)N2CCN(C(=O)c3ccco3)CC2)cn1 | – | inactive: 10.4% |
| COc1ccc(C(=O)N2CCCC(Cc3ncc(C)n3Cc3ccccc3)C2)c(OC)c1 (stereo not given) | inconclusive: 15 µM [inhibitor, single point] | – |
| COc1cc(OC)c(NC(=O)n2ncc3cc(Cl)ccc32)cc1Cl | – | inactive: 35% |
| O=c1c2nc(-c3cccc(O)c3)ccc2ncn1C1CC1 | inconclusive: 15.3 µM [inhibitor, partial curve, poor fit] | – |
| COc1ccc(Nc2nc(N3CCCCC3)c3ccccc3n2)cc1 | inconclusive: 21.1 µM [inhibitor, single point] | – |
| CC1=C[C@@H](CN(C)C)[C@H](C(C)C)C[C@H]1Cc1nc2c(C)cccc2[nH]1 | inconclusive: 15.3 µM [inhibitor, partial curve] | – |
| O=C(NC1CCCCC1)C(c1cccs1)N(CCCN1CCOCC1)C(=O)c1ccc(-c2ccccc2)[nH]1 (stereo not given) | inconclusive: 4.73 µM [inhibitor, full curve] | – |
| O=C(N[C@H](c1ccccn1)C1CC(O)C1)c1cc(=O)n(-c2ccccc2)[nH]1 (stereo not given in full) | active: 9.44 µM | – |
| CCCCNC(=O)CCCn1c(=O)c2ccccc2n(Cc2ccccc2C)c1=O | inconclusive: 21.1 µM [inhibitor, partial curve, poor fit] | – |
| CCc1ccc(CN(C(=O)c2cc3ccccc3oc2=O)C2CCS(=O)(=O)C2)cc1 (stereo not given) | – | inactive: 4.23% |
| CCOc1ccc(C(=O)N2CCC3(CC2)N=C(c2ccc(Cl)cc2)NO3)cc1 | inconclusive: 21.1 µM [inhibitor, single point] | – |
| COc1ccc(C2c3c(n(C)c4ccccc34)C(=O)N2CC(=O)Nc2ccc(Cl)cc2)cc1 (stereo not given) | inconclusive: 21.1 µM [inhibitor, single point] | – |
| Cc1nn(C(=O)CCCC(=O)N2CCCC2c2nc(C3CCOCC3)no2)c2ccccc12 (stereo not given) | – | inactive: 0% |
| Oc1ccc(COC2CCCC2)c2cccnc12 | inconclusive: 21.1 µM [inhibitor, single point] | – |
| Cc1oc2c(c1C(=O)NCCCN1CCCCC1)CN(Cc1ccccc1)CC2 | inconclusive: 21.1 µM [inhibitor, single point] | – |
| O=C(Nc1ccccn1)[C@@H]1C[C@@H](c2ccc(F)cc2)N(Cc2ccccc2)C1 | inconclusive: 9.68 µM [inhibitor, full curve, poor fit] | – |
| CCOc1ccc(NC(=O)c2c(NC(=O)CNCCN3CCOCC3)sc3c2CCC3)cc1 | inconclusive: 21.1 µM [inhibitor, single point] | – |
| O=C(N[C@H]1CCOC[C@H]1C1CCOCC1)c1ccccc1-c1ccccc1 | – | inactive: 46.3% |
| N#Cc1c(Cl)nsc1NC(=O)c1ccccc1 | inconclusive: 21.1 µM [inhibitor, single point] | – |
| COc1ccc(C2CC(c3cccs3)=NN2C(=O)c2ccco2)cc1OC (stereo not given) | inconclusive: 0.944 µM [inhibitor, full curve, poor fit] | – |
| CC(C)N1CCN(Cc2ccc(-c3ccccc3)cc2)CC1CCO (stereo not given) | inconclusive: 6.68 µM [inhibitor, partial curve] | – |

Source: PubChem BioAssay AID1347416 (National Center for Advancing Translational Sciences (NCATS), 2020)
